# The campaign covered roughly 330,000 compounds. About 4,200 (1.3%) were called active. Inconclusive means that the source gave no clear call. Such entries were picked first, then a sample of the others. Calls come from the whole dose curve; as a rule, active = well fitted activation curve with a large enough effect; inconclusive = small, poorly fitted or top-dose-only effect; inactive = no such curve, though single readings can be large or run the other way. Potencies beside an inconclusive call are fits to weak or partial responses and may not hold up.
# Test: qHTS screen for small molecules that induce genotoxicity in human embryonic kidney (HEK293T) cells expressing luciferase-tagged ELG1; note: nearly all actives have a fitted effect of over 60% in size
# Conditions: HEK293T ELG1-luciferase reporter, luminescence, 16 h; series mostly up to 46 µM
# Outline: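 ELG1-luciferase HEK293T cells, 2,000/well; compound pinned in; 16 hr, 37 °C, 5% CO2; ONE-Glo, 30 min RT; luminescence on CCD imager.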
# Potency is the fitted concentration of half-maximal effect; tags give direction and shape of the fitted curve.
row,Compound,Potency
1,COc1cc(C)ccc1OCc1cc(C(=O)NCc2ccncc2)no1,active: 18.3 µM
2,COc1ccc(-c2cc(C(=O)c3c(N)n(C)c(=O)n(C)c3=O)c3ccccc3n2)cc1,"inconclusive: 5.17 µM [activator, partial curve, poor fit]"
3,CCCCCN(C(=O)CCC(=O)OCc1ccccc1C(F)(F)F)c1c(N)n(CCCC)c(=O)[nH]c1=O,inactive
4,Cc1ccc2nc(-c3ccc4c(c3)OCCO4)cc(C(=O)O)c2c1,"inconclusive: 25.9 µM [activator, single point]"
5,CS/C(N)=N/N=C/c1c(O)ccc2ccccc12,"inconclusive: 20.6 µM [activator, partial curve, poor fit]"
6,Clc1cccc(Cl)c1/C=C/c1nc2ccccc2[nH]1,"inconclusive: 2.31 µM [activator, full curve]"
7,CCOc1ccc(OCc2ccc(C(=O)N/N=C(\C)c3ccccn3)cc2)cc1,"inconclusive: 6.51 µM [activator, single point]"
8,Cc1cc(C(=O)N2CC(C)CC(C)C2)n(-c2ccccc2)n1 (stereo unspecified),"inconclusive: 20.6 µM [activator, single point]"
9,c1ccc(OCCOc2ncnc3ccccc23)cc1,"inconclusive: 8.2 µM [activator, partial curve]"
10,COc1cc(/C=N/NS(=O)(=O)c2ccc(C)cc2)ccc1OCc1ccc(C(=O)O)cc1,"inconclusive: 0.517 µM [activator, partial curve]"
11,CCc1noc(C)c1C(=O)Nc1nc2ccc(OC)cc2s1,"inconclusive: 23.1 µM [activator, partial curve]"
12,Cc1ccc(NC(=O)NNC(=O)c2snnc2C)cc1,inactive
13,O=C(NNC(=O)c1ccccn1)c1ccc(OC(F)F)cc1,"inconclusive: 25.9 µM [activator, single point]"
14,N/C(=N\OC(=O)c1ccc(Cl)cc1)c1ccccn1,"inconclusive: 0.184 µM [activator, full curve]"
15,CCC(=O)C1CCCN(C(=O)CCc2nnc(-c3ccc4c(c3)OCO4)o2)C1 (stereo unspecified),"inconclusive: 20.6 µM [activator, partial curve, poor fit]"
16,Cc1cc(C(=O)N(C)C)sc1-c1ccccc1,"inconclusive: 16.4 µM [activator, partial curve, poor fit]"
17,COc1ccc(Nc2nc(-c3ccccc3)cs2)cc1,active: 0.58 µM
18,O=C(Nc1ccc(Cl)cn1)c1cccc(F)c1,"inconclusive: 9.2 µM [activator, partial curve]"
19,COc1ccc(N=c2cc(-c3ccc(OC)cc3)oc3ccccc23)cc1,inactive
20,COc1cccc(CNC(=O)Cn2c(=O)oc3ccccc32)c1OC,"inconclusive: 18.4 µM [activator, single point]"
21,Cc1c(-c2ncn[nH]2)sc(C#N)c1-c1ccccc1,inactive
22,CCN(C(=O)/C=C/c1ccc(OC)cc1)C1CCS(=O)(=O)C1 (stereo unspecified),"inconclusive: 1.64 µM [activator, partial curve, poor fit]"
23,COc1ccc(CN2C(=O)c3cccnc3C2=O)cc1S(=O)(=O)N1CCCCC1,inactive
24,O=C(N/N=C/c1ccc(-c2ccc(Cl)c(C(=O)O)c2)o1)c1cc2c(ccc3ccccc32)o1,inactive
25,NC(=O)COc1ccc(NC(=O)OCc2ccccc2)cc1,"inconclusive: 20.6 µM [activator, partial curve]"
26,COc1ccc(C(=O)COc2ccc(F)cc2)c(O)c1,"inconclusive: 9.2 µM [activator, partial curve, poor fit]"

row,Compound,Potency
1,O=C(Cc1ccccc1)Nc1nnc(-c2ccco2)s1,"inconclusive: 20.6 µM [activator, single point]"
2,O=C1/C(=C/c2ccc(O)cc2)COc2ccccc21,active: 10.3 µM
3,O=c1oc2ccccc2c2c1ncn2-c1ccccc1,"inconclusive: 16.4 µM [activator, partial curve, poor fit]"
4,COCCCN=C1NN=C(c2cc(C)n(-c3ccccc3)c2C)CS1,"inconclusive: 11.6 µM [activator, partial curve]"
5,O=C1ON=C(c2ccccc2)/C1=C\c1ccco1,inactive
6,O=C(Nc1ccc2[nH]ncc2c1)c1cccc(F)c1,"inconclusive: 18.3 µM [activator, single point]"
7,Cc1ccc(NC(=S)N(Cc2ccco2)C2CCN(C(C)C)CC2)cc1,inactive
8,COC(=O)c1cccc(NC(=O)Nc2ccccc2OC)c1,"inconclusive: 14.6 µM [activator, partial curve, poor fit]"
9,CN(C)c1ccc(N=Cc2nc(-c3ccccc3)oc2O)cc1,inactive
10,CC1CCc2sc(C(=O)NC(C)C3CCCO3)cc2C1 (stereo unspecified),"inconclusive: 5.8 µM [activator, full curve, poor fit]"
11,Cc1cc(N)n(-c2ccc(C)c(C)c2)n1,"inconclusive: 20.6 µM [activator, partial curve, poor fit]"
12,O=C(Nc1ccccc1)c1ccc2ccccc2n1,"inconclusive: 2.06 µM [activator, full curve]"
13,O=C(NC1CCCCC1)c1cc2nc(-c3ccco3)cc(C(F)(F)F)n2n1,inactive
14,COc1ccc(CCNC(=O)c2c(C)nn(CC(C)C)c2Cl)cc1,inactive
15,COCCN(C(=O)CSc1nnc(-c2ccccc2C)n1C)c1c(N)n(Cc2ccccc2)c(=O)[nH]c1=O,inactive
16,CC(C)NC(=O)C1CCN(C(=O)c2cc3sccc3n2Cc2ccc(F)cc2)CC1,inactive
17,Cc1cccc2c(SCC(N)=O)nc(-c3ccccc3)nc12,inactive
18,Cc1nc(NC(=O)c2ccccc2O)sc1C,active: 5.8 µM
19,CCCCn1c(SCc2nc3ccccc3s2)nc2cc(S(N)(=O)=O)ccc21,inactive
20,O=C(Nc1ccc(N2CCOCC2)c(F)c1)c1cccs1,active: 6.51 µM
21,Cc1cccn2cc(CNc3ccccc3)nc12,active: 20.6 µM
22,CCN(C[C@H]1N[C@@](CC)(C(=O)OC)[C@H]2C(=O)N(Cc3ccccc3)C(=O)[C@@H]12)C(=O)c1ccc(F)cc1,inactive
23,CCC(=O)c1ccc(N2CCN(C(=O)c3cccc(F)c3)CC2)c(F)c1,inactive
24,COc1ccccc1CNS(=O)(=O)c1ccc2c(c1)CC(C)N2C(=O)C1CCC1 (stereo unspecified),inactive
25,CCN(CC(=O)Nc1ccccc1-c1ccccc1)Cc1nc2ccccc2c(=O)[nH]1,inactive
26,O=C(Cc1cccc(F)c1)Nc1ccc2c(c1)CCC2,"inconclusive: 25.9 µM [activator, partial curve, poor fit]"

row,Compound,Potency
1,O=C(NC1CCCCCCC1)c1cccs1,"inconclusive: 18.3 µM [activator, partial curve, poor fit]"
2,CCCCC(=O)NC(c1ccc(N(CC)CC)cc1)c1ccc2cccnc2c1O (stereo unspecified),"inconclusive: 5.8 µM [activator, full curve, poor fit]"
3,Cc1cc(C(=O)COC(=O)c2cc(Cl)c(O)c(Cl)c2)c(C)n1C,inactive
4,COc1ccc(N/N=C(\C=N\O)C(=O)c2ccc(OC)cc2)cc1,"inconclusive: 32.6 µM [activator, partial curve, poor fit]"
5,CN1CCN(c2ccc(NC(=O)c3cccs3)cc2)CC1,"inconclusive: 2.31 µM [activator, full curve, poor fit]"
6,Cc1ccc(C(=O)COC(=O)c2cc(Cl)nc3ccccc23)cc1,inactive
7,O=C(NC(=O)c1ccc(Cl)cc1)Nc1ccc(-c2cnco2)cc1,"inconclusive: 29.1 µM [activator, partial curve, poor fit]"
8,CC(=O)Nc1ccc(SCC(=O)c2c(N)n(Cc3ccccc3)c(=O)n(C)c2=O)cc1,inactive
9,CC(=O)Nc1ccc(NC(=O)c2oc3cc(C)c(C)cc3c2C)cc1,"inconclusive: 5.8 µM [activator, full curve]"
10,COc1ccc(C(=O)Nc2ccccc2C(=O)N/N=C/c2ccccn2)cc1OC,active: 20.6 µM
11,Cc1cc(NC(=O)COc2cccc(C)c2C)no1,"inconclusive: 23.1 µM [activator, single point]"
12,CCc1cccc(OCC(=O)Nc2ccc(C)c(S(=O)(=O)N3CCCCCC3)c2)c1,"inconclusive: 5.8 µM [activator, partial curve, poor fit]"
13,COc1cc(/C=C/C(=O)c2ccccc2O)cc(OC)c1OC,"inconclusive: 25.9 µM [activator, single point]"
14,Cc1ccc(-c2csc(N3C(=N)SCC3=O)n2)cc1,active: 10.3 µM
15,CC(=O)c1cnc2cc(-c3ccc(Cl)cc3)nn2c1C,"inconclusive: 14.1 µM [activator, partial curve, poor fit]"
16,Oc1c(/C=N/c2ccccn2)sc2ccccc12,"inconclusive: 3.26 µM [activator, single point]"
17,O=C(NC1CCCCC1)c1cccc2c1C(=O)c1ccc(-c3ccc(OC(F)(F)F)cc3)cc1S2(=O)=O,inactive
18,COC(=O)[C@@H]1C(c2c(OC)cc(OC)cc2OC)=NO[C@H]1C(=O)OC,inactive
19,CCOc1cccc(C(=O)Nc2ccc3ccccc3c2)c1,active: 0.461 µM
20,CC1CCN(C(=O)c2ccc3ccccc3c2)CC1,"inconclusive: 18.3 µM [activator, partial curve]"
21,COc1ccc(C(C(=O)NC2CCCCC2)N(C(=O)CCCC(=O)Nc2ccccn2)c2ccc3c(c2)OCCO3)cc1 (stereo unspecified),inactive
22,Cc1cc(C)nc(NC(=O)/C=C/c2cccs2)c1,"inconclusive: 16.4 µM [activator, partial curve, poor fit]"
23,Clc1cccc(Cl)c1-c1noc(CN2CCOCC2)n1,inactive
24,NS(=O)(=O)c1ccc(NC(=O)COC(=O)C2CC2)cc1,inactive

# Reference: PubChem BioAssay AID504466 (National Center for Advancing Translational Sciences (NCATS), 2011)
